Structures are written as SMILES. Over roughly 110,000 compounds, “z-score” has its median near -0.1; the highest 2% begin near 2. The list shows a part of the results. Active and inactive are the calls of the source.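 Rule for the calls: active = z-score in the third read window above 3 or below -3; inactive = the rest.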

The target of this experiment is Metabotropic glutamate receptor 8 (Rattus norvegicus) (UniProt P70579). The experiment can be described thus: mGluR8 Gi/Go-coupled signaling modulation – cell-based, rat, thallium flux, HTS, primary screen (AID 488969). To be noted: HEK293 rat mGluR8, GIRK (G protein-gated inwardly rectifying potassium channel) thallium flux, FluoZin2; at 10 µM; stronger effect = higher value; submaximal glutamate (EC20) added with thallium.
Chain of UniProt P70579 (P70579 whole entry, looked up): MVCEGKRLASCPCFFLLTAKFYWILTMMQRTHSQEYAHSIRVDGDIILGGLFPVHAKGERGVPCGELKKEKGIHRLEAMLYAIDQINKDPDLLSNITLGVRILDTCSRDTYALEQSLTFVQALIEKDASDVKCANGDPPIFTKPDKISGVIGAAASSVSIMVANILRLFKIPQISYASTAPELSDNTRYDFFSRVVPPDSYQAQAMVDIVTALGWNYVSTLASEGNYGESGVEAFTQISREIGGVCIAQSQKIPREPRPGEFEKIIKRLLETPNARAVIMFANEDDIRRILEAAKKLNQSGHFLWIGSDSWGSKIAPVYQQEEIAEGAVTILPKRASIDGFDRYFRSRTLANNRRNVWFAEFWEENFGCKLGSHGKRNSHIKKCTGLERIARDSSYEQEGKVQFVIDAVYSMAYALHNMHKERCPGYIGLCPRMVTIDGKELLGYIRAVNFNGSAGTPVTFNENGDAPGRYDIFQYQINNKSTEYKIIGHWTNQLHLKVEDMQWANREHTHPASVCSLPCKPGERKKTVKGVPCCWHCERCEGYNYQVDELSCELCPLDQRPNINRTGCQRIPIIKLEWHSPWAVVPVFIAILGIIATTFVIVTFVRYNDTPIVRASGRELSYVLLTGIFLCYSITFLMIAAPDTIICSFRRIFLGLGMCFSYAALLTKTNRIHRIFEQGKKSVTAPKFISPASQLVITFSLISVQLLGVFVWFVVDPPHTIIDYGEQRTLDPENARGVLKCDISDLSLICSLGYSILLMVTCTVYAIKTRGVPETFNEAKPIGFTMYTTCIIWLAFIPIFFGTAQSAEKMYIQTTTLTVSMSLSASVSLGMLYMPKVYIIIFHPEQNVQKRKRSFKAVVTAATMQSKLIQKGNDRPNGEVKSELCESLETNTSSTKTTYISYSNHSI
`CC(C)C(=O)NNc1nc2ccccc2s1` showed a z-score of 0.0619.

Consider `CCCCOC(=O)c1nc(Cl)c(Cl)c(N)c1Cl`, for which the z-score was -0.252.

`CCCCP(=O)(c1ccccn1)c1ccccn1` showed a z-score of 0.00517.

For `COc1ccc(/C=N/NC(=O)CN(CCc2ccccc2)S(=O)(=O)c2ccc(NC(C)=O)cc2)cc1OC`, the z-score is -0.231.

`CSc1cccc(NS(=O)(=O)c2ccccc2)c1` yielded a z-score of -0.281.

Consider `O=C(CSCc1ccc(Cl)cc1)N/N=C/c1ccc(Cl)cc1Cl`, for which the z-score turned out to be 0.271.

`Cc1nn(C)cc1CN(C)C(=O)c1cc2nc(-c3ccco3)cc(C(F)(F)F)n2n1` returned a z-score of -0.899.

Consider `COc1ccc(OC)c(-c2oc3ccccc3c(=O)c2O)c1`, for which the z-score came out at 0.149.

In the case of `C/C=C/c1ccc(OCCCCOc2ccc(OC)cc2)c(OC)c1`, the z-score amounted to 0.557.

On to `C/C(N)=C(/C#N)C(=O)COC(=O)CCSc1ccccc1Cl`, for which the z-score was -0.346.

Consider `O=C(CSC(=S)N1CCCCC1)N1N=CCC1c1ccccc1` (configuration not stated), for which the z-score is -0.371.

`CCOC(=O)NC1(NC(C)C)Oc2ccccc2O1` had a z-score of 0.00812.

Turning to `COc1cccc(CNC(=O)CCl)c1`, the z-score came out at 0.214.

In turn, `CS(=O)(=O)N(Cc1ccccc1)c1ccc(C(=O)NCCSc2ccccn2)cc1` returned a z-score of 0.438.

Compound `COc1ccc(Oc2cn[nH]c2-c2ccc(O)cc2O)cc1` displayed a z-score of 0.323.

Turning to `Cc1ccc(NS(=O)(=O)c2ccc(C)c(NC(=O)COc3ccccc3)c2)c(C)c1`, the z-score was -0.26.

In turn, `CNC(=O)NC(=O)CSc1nnc(-c2ccco2)n1Cc1ccccc1` gave a z-score of 0.114.

`NC(=O)CSc1nnc(-c2cccs2)n1-c1ccccc1`: the z-score is 0.733.

In turn, `CCCn1nnnc1SCC(=O)N1CCN(C(=O)c2ccco2)CC1` registered a z-score of -0.11.

In turn, `O=C1C(CCCNC(=S)NCc2ccccc2)NC(=S)N1Cc1ccccc1` (configuration not stated) gave a z-score of 0.254.

`Cc1ccccc1-n1nc(CSc2nc3ccccc3[nH]2)c(-c2ccccc2)c1N` gave a z-score of -0.755.

In turn, `COc1ccc(C)cc1-n1nnnc1SCC1CCCO1` (configuration not stated) registered a z-score of -0.281.

`CCOC(=O)c1cc2sccc2n1CC(=O)OC` displayed a z-score of -0.185.

`CCn1nnnc1SCC(=O)NCc1ccc2c(c1)OCO2` returned a z-score of -0.212.

The compound `COC(=O)C1=C(C)NC(=O)/C1=C\c1cc(C)n(-c2c(C)cccc2C)c1C` gave a z-score of 1.

For the compound `COc1ccc2c(=O)c3c(=O)n(Cc4ccco4)c(-c4ccc(C)cc4)nc3oc2c1`, the z-score is -2.04.

Consider `COc1ccc(S(=O)(=O)/N=C2/NC(=O)/C(=C\c3cc(OC)c(OC)cc3[N+](=O)[O-])S2)cc1`, for which the z-score is -0.711.

In turn, `C=C(C)C1CC=C(C)/C(=N/NC(=O)CNc2ccc(OCC)cc2)C1` (configuration not stated) came in with a z-score of 1.99.

`Cc1nn(Cc2nc(-c3cccs3)no2)c(C)c1Br` gave a z-score of -0.107.

As for `CCN(CC)C(=O)C1CCCN(c2ccc([N+](=O)[O-])cc2/C=N/NC(=O)c2cccc(Br)c2)C1` (configuration not stated), the z-score was -0.344.

Take `Cc1ccc(S(=O)(=O)c2ccc(Cl)cc2)cc1S(=O)(=O)NC(C(=O)O)C(C)C` (configuration not stated): the z-score is -0.055.

`Cc1cc(Cl)ccc1Oc1ncc(CN2CCN(c3ccccc3)CC2)s1` gave a z-score of 0.272.

In the case of `Cc1ccc(-c2cc(C(=O)N/N=C/C=C/c3ccccc3)n[nH]2)s1`, the z-score is -0.0221.

On to `Cc1cc(S(=O)(=O)N(Cc2ccc(C(C)(C)C)cc2)Cc2cccs2)ccc1-n1cnnn1`, for which the z-score came out at 0.292.

The compound `Cc1ccc(S(=O)(=O)N(C(=O)c2ccncc2)c2ccc(OC(=O)c3ccncc3)cc2)cc1` came in with a z-score of -0.112.

`CCOC(=O)CSc1nc2sc3c(c2c(=O)n1CC)CC(C)(C)OC3` displayed a z-score of -0.119.

Compound `CCCOc1ccc(-c2nnc(-c3ccco3)o2)cc1` yielded a z-score of -0.0301.

Compound `Cc1cc(C)n(C(=O)c2ccc(NC(=O)C3COc4ccccc4O3)cc2)n1` (configuration not stated) displayed a z-score of -0.154.

`COc1ccc(-c2ccnc3nc(-n4cccc4)nn23)cc1` displayed a z-score of -1.1.

`C=CCN(CC=C)S(=O)(=O)c1ccc(NC(=S)NC(=O)c2ccco2)cc1`: the z-score is active: 10.3.

Compound `Cc1ccc(S(=O)(=O)N(CC(=O)NCc2ccco2)C2CCCCC2)cc1` came in with a z-score of -0.303.

`CC(C)CN1CCC(C(=O)NCC2CCCO2)CC1` (configuration not stated) showed a z-score of -0.311.

`CC1=C(C(=O)N2CCOCC2)C(c2ccc(Cl)cc2)NC(=S)N1` (configuration not stated): the z-score was -0.178.

The compound `Cc1ccc(S(=O)(=O)N2CCN(S(=O)(=O)c3ccc(C)cc3)C2)cc1` showed a z-score of -0.481.

As to `CC1CCCCC1N1CN=C(Nc2nc3ccccc3s2)NC1` (configuration not stated), the z-score was -0.335.

On to `Cc1ccc(C)c(NC(=O)c2cccc(Oc3ccc([N+](=O)[O-])cc3Cl)c2)c1`, for which the z-score was -0.372.

`CCOC(=O)c1sc(-c2ccc(C)cc2)c(C#N)c1C` gave a z-score of -0.244.

For `Cn1c(/C(C#N)=C/Nc2ccccn2)nc2ccccc21`, the z-score came out at 0.0645.

The compound `CC1CCCCC12NC(=O)N(Cn1nnc3ccccc3c1=O)C2=O` (configuration not stated) displayed a z-score of 0.195.

With `Cc1ccc(S(=O)(=O)N2CCCOC2CNC(=O)C(=O)NCCC2=CCCCC2)cc1` (configuration not stated), the z-score is -0.455.

Take `CCOC(=O)Nc1cc(C)c(Cl)cc1OC`: the z-score is -0.221.

On to `COc1ccc(Nc2nc(-c3cccc([N+](=O)[O-])c3)nc3ccccc23)c(OC)c1`, for which the z-score was 0.00986.

Turning to `Cc1cccc(OCC(=O)Nc2nc3ccc([N+](=O)[O-])cc3s2)c1C`, the z-score is -0.12.

`O=C(Nc1ccc2ccccc2c1)c1cccnc1` had a z-score of -0.194.

Take `COc1ccc(OC)c(NC(=S)N2CCN(c3ccccn3)CC2)c1`: the z-score is -0.116.

As for `CCC(CC)NC(=O)COC(=O)c1ccc(OCC(=O)Nc2ccccc2OC)c(OC)c1`, the z-score is -0.0802.

For the compound `N#CCCn1nc(-c2ccccc2)cc1-n1c(C(F)(F)F)nc2ccccc21`, the z-score was -0.505.

Consider `CCOC(=O)CNC(=O)Cn1cnc2ccc(S(=O)(=O)N3CCC(C)CC3)cc2c1=O`, for which the z-score worked out at 0.396.

For the compound `Cc1ccc2c(c1)N(CCC(=O)NCc1ccccn1)C(=O)CO2`, the z-score was 0.652.

Consider `O=C(NCc1cccnc1)C1CCCN(S(=O)(=O)c2ccc(Cl)cc2)C1` (configuration not stated), for which the z-score came out at 0.714.

`CCOC(=O)c1[nH]c2ccccc2c1NC(=O)C(C)(C)C` registered a z-score of 0.413.

`N#Cc1nc(COc2ccc(Cl)cc2)oc1N1CCN(Cc2ccccc2)CC1` returned a z-score of 0.521.

With `CCN(CCCNC(=O)C1CCCN(S(=O)(=O)CC)C1)c1cccc(C)c1` (configuration not stated), the z-score was -0.0948.

In the case of `CSc1cccc(NC(=O)c2c(Cl)cnn2C)c1`, the z-score was -0.0278.

`C/C(=C\C(=O)c1ccccc1)Nc1ccc2c(c1)OCO2` showed a z-score of 0.023.

In turn, `CCC(NS(=O)(=O)c1ccc(OC)cc1)C(=O)NCCC1=CCCCC1` (configuration not stated) had a z-score of -0.931.

In turn, `Cc1ccc(C)c(N2CCN(C(=O)Cc3ccc(-n4c(=O)[nH]c5ccsc5c4=O)cc3)CC2)c1` registered a z-score of 0.111.

Turning to `O=C(NCCCCNC(=O)c1ccc(Br)s1)c1ccc(Br)s1`, the z-score amounted to 0.224.

On to `O=C(/C=C/c1ccccc1Cl)NCCc1ccccc1`, for which the z-score was -0.1.

Consider `COC(=O)c1cccnc1-n1c(=O)c2cccnc2n(Cc2cccc(OC)c2)c1=O`, for which the z-score was -0.124.

In turn, `CCO/C=C1\N=C(c2ccc(F)cc2)OC1=O` came in with a z-score of -0.109.

`O=C(CN1C(=O)c2ccccc2C1=O)NCCc1c[nH]c2ccc(Cl)cc12` displayed a z-score of -0.00708.

Take `CCOc1ccc(Oc2c(/C=N/NC(C)=O)c(C)nn2-c2ccccc2)cc1`: the z-score was -0.222.

Compound `O=C(O)COc1ccc(Br)cc1/C=N/O` returned a z-score of 0.512.

The compound `Cc1cc2nc(N)sc2cc1C` came in with a z-score of 0.535.

For `O=C1c2cccnc2C(=O)N1Cc1ccc(F)cc1`, the z-score is -0.357.

`Cc1ccc(-c2csc3ncnc(Oc4ccc5c(C)cc(=O)oc5c4)c23)cc1` displayed a z-score of -0.234.

For the compound `CCCOC(=O)Oc1ccc2c(=O)c(Oc3cc(C)cc(C)c3)coc2c1`, the z-score was -0.218.

Consider `CCC(CC)=N/N=C/c1c(O)n(CC)c2cc(C3=NNC(=O)CC3)ccc12`, for which the z-score was -0.372.

In turn, `COc1ccccc1C(=O)Nc1c2c(nn1-c1cccc(C)c1C)CS(=O)(=O)C2` had a z-score of -0.999.

`Cc1cccc2[nH]c(-c3ccc(NC(=O)c4ccco4)cc3)nc12` showed a z-score of -0.408.

With `CCOC(=O)c1ccc(N2CCN(c3ccc(F)cc3)CC2)c(NC(=O)Nc2cccc(OC)c2)c1`, the z-score is -0.148.

For `COc1cccc(/C=N/Nc2nn3cnnc3c3ccccc23)c1O`, the z-score was -0.377.

With `CCCC(c1nnnn1CCc1ccccc1)N1CCN(C(=O)c2ccco2)CC1` (configuration not stated), the z-score was -1.18.

In turn, `C=CCOc1c(CNc2cccc(C(=O)O)c2)cccc1OC` displayed a z-score of -0.325.

`O=C1c2ccccc2C(Nc2ccc3c(c2)OCCO3)N1Cc1ccccc1` (configuration not stated) gave a z-score of -0.484.

Turning to `Cc1ccc2c(CN3CCCc4ccccc43)cc(=O)oc2c1C`, the z-score is 0.351.

`CC/C(=N\NC(=O)c1csc(C)c1C)c1cccs1`: the z-score was found to be 1.32.

On to `Cn1c(=O)[nH]c(=O)c2c1nc(NCCCn1ccnc1)n2Cc1ccc(F)cc1`, for which the z-score was 0.613.

Compound `CCCN(CC1CC1)C(=O)COC(=O)c1[nH]c(C)c(C(=O)OCC)c1C` had a z-score of -0.372.

Compound `Cc1ccc(NC(N)=S)cc1` displayed a z-score of -0.167.

Take `CCOC(=O)c1c2n(c3ccc(OC(C)=O)cc13)CCC2`: the z-score is -0.975.

`O=C(CSc1nc2ccc([N+](=O)[O-])cc2[nH]1)c1ccc2ccccc2c1` showed a z-score of -0.117.

As to `O=C(Cn1cnc2ccccc21)N/N=C/c1ccc([N+](=O)[O-])cc1`, the z-score is -0.28.

With `O=C(CSc1nnc(-c2cccnc2)s1)Nc1ccc(C(=O)O)cc1`, the z-score is -0.272.

As for `O=C(COC(=O)/C=C/c1ccc(Cl)cc1)NCCc1ccccc1`, the z-score amounted to 0.183.

For `COc1ccc(-c2noc(-c3ccc(C)cc3)n2)cc1`, the z-score was -0.119.

In the case of `O=C1C(Nc2ccccc2)=C(NS(=O)(=O)c2ccccc2)C(=O)c2ccccc21`, the z-score is 0.00433.

For `COc1ccc(OC)c(C(c2nnnn2CCC(C)C)N2CCN(C(=O)c3ccco3)CC2)c1` (configuration not stated), the z-score amounted to 0.439.

In the case of `N#Cc1c(N)nc2c(c1-c1ccncc1)CCCC2`, the z-score is -0.232.

As for `Cc1nc(NC(=O)c2oc3ccccc3c2C)sc1C(=O)N(C)C`, the z-score was 0.47.

For the compound `COC(=O)CSc1nnc(-c2ccccc2OC)o1`, the z-score was -2.68.

`CCC(=O)N1CCN(c2cc(C)ccc2C)CC1`: the z-score was found to be 0.999.

`Cc1ccc(/C=C/C(=O)NCc2ccncc2)cc1` came in with a z-score of -0.406.

On to `CCCC(=O)NC(=S)Nc1nc(-c2ccc(OC)cc2)cs1`, for which the z-score was determined as 0.0021.

Turning to `O=C(Nc1cnccn1)C1c2ccccc2Oc2ccccc21`, the z-score was -0.0615.

In turn, `CC1CCC2(CC1)NC(=O)N(CC(=O)c1cccn1C)C2=O` (configuration not stated) gave a z-score of 0.0445.

`CC1(C)CC(=NOC(=O)c2ccccc2)CC(C)(C)N1` yielded a z-score of -0.0122.

With `CN(C)S(=O)(=O)Nc1ccc(Oc2ccccc2)cc1`, the z-score is 0.226.

On to `CCOc1ccccc1C(=O)N(CN1CCCC1=O)c1ccc(C)c(Cl)c1`, for which the z-score worked out at 0.589.

Regarding `Cc1ccc(NC(=O)COC(=O)Cn2c(C)csc2=O)cc1C`, the z-score came to 1.02.

`O=C(NC1CCCC1)C(Cc1ccccc1)n1cccc1` (configuration not stated): the z-score was 0.182.

Values taken from PubChem BioAssay AID488969 (Vanderbilt High Throughput Screening Facility, 2010).
